From PMC4336329 (PLoS ONE, 2015)
The whole screen tested about 310,000 compounds, of which about 14,000 (4.5%) showed an effect of 50% or more. Effects have a minus sign here. This is one part of the list.

target: human ether-à-go-go-related gene (hERG) potassium channel (human, UniProt Q12809); test: primary screen, population patch clamp on CHO cells stably expressing hERG
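Further: peak tail current of the secondary pulse compared with the same well before compound.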

Chain of human ether-à-go-go-related gene (hERG) potassium channel (Q12809 whole entry, looked up): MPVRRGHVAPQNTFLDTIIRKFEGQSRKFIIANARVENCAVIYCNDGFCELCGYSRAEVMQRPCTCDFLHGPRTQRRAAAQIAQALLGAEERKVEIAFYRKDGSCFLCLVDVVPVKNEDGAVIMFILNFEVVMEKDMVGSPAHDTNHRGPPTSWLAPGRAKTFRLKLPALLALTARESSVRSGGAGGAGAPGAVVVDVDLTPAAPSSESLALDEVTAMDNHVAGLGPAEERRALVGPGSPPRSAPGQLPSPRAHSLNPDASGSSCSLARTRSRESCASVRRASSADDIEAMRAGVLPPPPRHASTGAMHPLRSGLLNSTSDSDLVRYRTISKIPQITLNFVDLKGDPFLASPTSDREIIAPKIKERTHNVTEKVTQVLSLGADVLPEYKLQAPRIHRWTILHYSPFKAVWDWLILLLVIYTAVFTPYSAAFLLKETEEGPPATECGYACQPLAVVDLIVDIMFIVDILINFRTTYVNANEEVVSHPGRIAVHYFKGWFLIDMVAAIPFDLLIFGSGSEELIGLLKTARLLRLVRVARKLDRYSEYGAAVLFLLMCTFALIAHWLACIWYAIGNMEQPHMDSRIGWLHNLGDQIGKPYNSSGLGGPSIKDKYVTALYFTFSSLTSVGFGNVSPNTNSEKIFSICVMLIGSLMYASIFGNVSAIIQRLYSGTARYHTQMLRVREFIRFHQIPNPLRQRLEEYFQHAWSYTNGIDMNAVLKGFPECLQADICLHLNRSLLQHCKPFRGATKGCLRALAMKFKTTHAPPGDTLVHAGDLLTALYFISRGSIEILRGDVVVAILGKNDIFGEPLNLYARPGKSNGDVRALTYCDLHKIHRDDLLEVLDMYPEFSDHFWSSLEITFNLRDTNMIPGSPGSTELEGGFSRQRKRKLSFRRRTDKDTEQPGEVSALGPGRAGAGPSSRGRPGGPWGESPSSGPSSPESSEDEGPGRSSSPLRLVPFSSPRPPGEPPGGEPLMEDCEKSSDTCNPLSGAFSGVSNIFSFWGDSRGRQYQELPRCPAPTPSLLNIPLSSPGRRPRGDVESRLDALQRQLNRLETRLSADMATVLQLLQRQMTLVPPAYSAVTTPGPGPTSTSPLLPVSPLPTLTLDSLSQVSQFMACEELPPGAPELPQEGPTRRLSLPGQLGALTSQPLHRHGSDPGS

| SMILES | hERG current change (%, negative = inhibition) at 10uM [%] |
| --- | --- |
| CN(Cc1ccon1)C(=O)c1ccc2nc(Cc3cccc(Cl)c3)oc2c1 | -9.92 |
| CN(C)c1ccc(C(C(=O)NC(C)(C)C)N(C(=O)c2csnn2)C2CC2)cc1 (centres unmarked) | 2.48 |
| Cc1cccc(NS(=O)(=O)c2cc3c4c(c2)CC(=O)N4CCC3)c1C | 11.2 |
| CC1=NN(/C(=N\c2nnc(C)s2)Nc2ccccc2)[C@H](c2cccc3ccccc23)S1 | 0.419 |
| CC(C)n1c(/C=C/[C@@H](O)C[C@@H](O)CC(=O)[O-])c(-c2ccc(F)cc2)c2ccccc21.[Na+] | 20.6 |
| CCCS(=O)(=O)NCCc1cc2ccc(OC)cc2[nH]c1=O | 3.08 |
| CCC(C)OC(=O)C1=C(C)O[C@]23OC(N)=C(C#N)[C@]12C(=O)c1ccccc13 (some centres unmarked) | -8.98 |
| Cc1nc([N+](=O)[O-])cn1CC(=O)NCCCO | 11.1 |
| CN(C)CCNC(=O)C12CC3(C)CC(C)(CC(C)(C3)C1)C2.Cl | 1.17 |
| COc1ccc(NC(=O)CSc2nnc(C(C)C)n2N)cc1 | -6.23 |
| Cc1ccc(-n2c3nc(=O)n(C)c(=O)c-3cc3ccccc32)cc1 | 15.7 |
| C/C(=N\N1CCN(C)CC1)c1c(O)n(Cc2ccccc2)c(=O)[nH]c1=O | -27.9 |
| Cl.NC(N)=NCCCc1cn(CC(=O)N2CCNCC2)nn1 | 0.759 |
| Cc1ccc(S(=O)(=O)/N=C(\CN2CCCCC2)N2CCOCC2)cc1 | -17.5 |
| CCCCN(C(=O)c1ccc(S(=O)(=O)N2CCC(C)CC2)cc1)C1CCS(=O)(=O)C1 (centres unmarked) | -53.2 |
| Cc1ccc2c(c1)C1CN(C)CCC1N2C(=O)COc1ccc(N(C)C(=O)C(C)(C)C)cc1 (centres unmarked) | -9.48 |
| COc1ccc(C(=O)N2N=C(c3ccc(NS(C)(=O)=O)cc3)CC2c2cccs2)cc1 (centres unmarked) | -10.6 |
| Cl.O=C1CSC(c2ccccc2F)N1CCN1CCCCC1 (centres unmarked) | -10.6 |
| NC(=O)N1CCc2ccccc21 | 15.9 |
| COc1ccccc1N(CC(=O)NCCSCc1ccc(Cl)cc1)S(C)(=O)=O | -0.283 |
| O=C(NCc1cccnc1)c1cccs1 | 11.7 |
| CCOC(=O)N1CCN(C(=O)COc2ccc(Br)cc2)CC1 | -39.1 |
| COc1ccc(NC(=O)CSc2nc3c(c(=O)n2-c2ccc(F)cc2)SCC3)cc1 | -15.9 |

| SMILES | hERG current change (%, negative = inhibition) at 10uM [%] |
| --- | --- |
| CCCCn1c(N)c(N(CC)C(=O)c2cc(OC)cc(OC)c2)c(=O)[nH]c1=O | 7.26 |
| Cn1c(=O)n(C)c2cc(S(=O)(=O)N3CCN(c4ccccc4)CC3)ccc21 | -12.1 |
| CCCCC1=NC2(CCCC2)C(=O)N1Cc1ccc(-c2ccccc2-c2nn[nH]n2)cc1 | 5.33 |
| Cc1cccc(C(=O)Nc2ccccc2SCC2CSc3nc4ccccc4c(=O)n32)c1 (centres unmarked) | -80.4 |
| CC(=O)c1ccc(N2CCN(C(=O)c3ccco3)C(C)C2)c(F)c1 (centres unmarked) | -49.9 |
| Cc1ccc(C(=O)N2CCN(C)CC2)cc1S(=O)(=O)N1CCOCC1 | 11.5 |
| CCCN(CC(=O)Nc1ccccc1C)C(=O)c1ccc(N2CCOCC2)c([N+](=O)[O-])c1 | -70.3 |
| CCOC(=O)N1CCC(N2CCCC(CO)(Cc3cccc(Cl)c3)C2)CC1 (centres unmarked) | -49 |
| S=C(NCCc1ccccc1)Nc1cccc2cnccc12 | -0.828 |
| Cc1ccc(OC(C)C(=O)N(C)Cc2ccccc2)c([N+](=O)[O-])n1 (centres unmarked) | 10.5 |
| O=C1OCCC1Sc1nc2ccccc2c(=O)n1Cc1ccc(F)cc1 (centres unmarked) | -75.5 |
| Cc1c(C(=O)NC(=S)Nc2ccc3c4c(cccc24)CC3)cccc1[N+](=O)[O-] | 8.63 |
| CCOc1ccc(CCNC(=O)COC(=O)CNS(=O)(=O)c2ccc(NC(C)=O)cc2)cc1OCC | -10.6 |
| C#CCN(C)[C@H](C)Cc1ccccc1.Cl | 15.7 |
| Cl.N=c1ccn(Cc2cccc(Cl)c2)cc1 | 2.03 |
| CCC(=O)Nc1cc2c(cc1C(=O)c1ccccc1)OCCO2 | -3.08 |
| COc1cccc(C2=CC(c3ccc(N(C)C)cc3)n3ncnc3N2)c1 (centres unmarked) | -1.72 |
| O=C(COC(=O)c1ccc(OC(F)F)cc1)NCCC1=CCCCC1 | -3.79 |
| O=C(COC(=O)c1c2c(nc3ccccc13)CCCC2)c1ccc(Br)s1 | -0.671 |
| O=C(CCn1[nH]c(=O)c2ccccc2c1=O)N1CCOCC1 | 27.6 |
| CSc1nncn1/N=C/c1cc(Cl)ccc1F | -3.41 |
| O=C(Nc1c(F)c(F)c(F)c(F)c1F)C1CCCCC1 | -3.18 |
| CC(=O)OC1N=C(c2ccccc2)c2ccccc2NC1=O (centres unmarked) | 9.23 |

| SMILES | hERG current change (%, negative = inhibition) at 10uM [%] |
| --- | --- |
| CC(C)c1onc(C(=O)NCc2cccs2)c1[N+](=O)[O-] | 5.33 |
| O=C(Nc1nccs1)C1CC(=O)N(c2ccccc2)C1 (centres unmarked) | 14.1 |
| CCn1ncc2c(OCc3ccc(C#N)cc3)cc(C)nc21 | -34.2 |
| Cc1ccc(C(=O)NCC#N)cc1 | 5.72 |
| Cc1ccc(C(=O)CCC(=O)NC2CCCC(C)C2C)cc1 (centres unmarked) | 14.3 |
| Cc1cccc(-n2cnc3c(c2=O)c2nc4ccccc4nc2n3Cc2ccco2)c1 | -63.7 |
| CC(Sc1ccccc1)C(=O)NN=C1CCCCCCC1 (centres unmarked) | 2.12 |
| CCC(C)[C@@H](N)C(=O)N/N=C/c1ccc2ncccc2c1.Cl (some centres unmarked) | 9.23 |
| CN(C)C(C)(C)C#CCCCCC#CC(C)(C)N(C)C | 16.5 |
| Cc1cc(C)c(C(=O)NCC(=O)c2ccccc2)c(C)c1 | 11.1 |
| Cc1c(NC(=O)CSc2nc3ccc(Cl)cc3[nH]2)c(=O)n(-c2ccccc2)n1C | 4.9 |
| CCOc1ccc(C(=O)NC2CCN(C(=O)NCc3ccccc3)CC2)cc1 | 1.82 |
| Cc1ccc2c(Cl)cc(Cl)c(OCC(=O)O)c2n1 | 11.9 |
| O=C(Nc1ccc(S(=O)(=O)N2CCOCC2)cc1)c1cccs1 | 6.03 |
| CC(C)(C)NC(=O)C(=O)NNC(=O)c1ccc(C(C)(C)C)cc1 | -0.346 |
| O=C(CN1C(=O)NC2(CCCCCCC2)C1=O)Nc1ccc(Cl)cc1 | 4 |
| Cc1ccc(C)c(NC(=O)COC(=O)COc2cccc3c2OC(C)(C)C3)c1 | 11.5 |
| O=C(c1cn(CC2CCCCC2)nn1)N1CCN(c2ccc(F)cc2)CC1 | -52.5 |
| COc1ccc(NC(=O)CSCC(=O)Nc2ccccc2N2CCCCC2)cc1 | 9.38 |
| Cc1ccc(C(=O)CCC(=O)NCc2ccc(Cl)cc2)cc1 | -8.52 |
| COc1cccc(C2C(C(N)=O)=C(C)Nc3nc(CCCO)nn32)c1OC (centres unmarked) | 4.7 |
| CCc1ccc(NC(=O)C(CC)Sc2nc3ccsc3c(=O)n2CCC(=O)O)cc1 (centres unmarked) | 17.5 |
| CCOC(=O)CSc1nc2c(cnn2-c2ccc(Cl)cc2)c(=O)[nH]1 | 21.8 |

| SMILES | hERG current change (%, negative = inhibition) at 10uM [%] |
| --- | --- |
| c1ccc(OCCSc2nnnn2C2CCCCC2)cc1 | -3.5 |
| Fc1ccc(-c2[nH]ncc2CN2CCN(c3ccc(F)cc3)CC2)cc1 | -44.5 |
| Cc1nc2sc(C(c3ccc(C(C)C)cc3)N3CCN(CCO)CC3)c(O)n2n1 (centres unmarked) | 9.72 |
| COc1ccc2c(=O)c(-c3ccc4c(c3)OCO4)coc2c1 | 5.86 |
| COc1cc(-c2n[nH]c(=S)n2-c2cccc(C(F)(F)F)c2)cc(OC)c1OC | 6.33 |
| O=C(C1COc2ccccc2O1)N1CCN(c2nc3ccc([N+](=O)[O-])cc3s2)CC1 (centres unmarked) | -29.8 |
| C/C(=N\NC(=O)CSCc1ccc([N+](=O)[O-])cc1)c1ccccc1O | -2.52 |
| Cc1[nH]c2ccc(-c3n[nH]c(=S)n3C)cc2c1C | -30.3 |
| Cc1cccc(S(=O)Cc2ccc(C(=O)N3CCN(C(=O)c4ccco4)CC3)o2)c1 (centres unmarked) | -10.2 |
| CN(C)c1ccc(CNc2ncc(Br)cc2Br)cc1 | -3.62 |
| CN(C(=O)COC(=O)c1cc[n+]([O-])cc1)c1ccccc1 | 16.9 |
| CN(CC(=O)NCCc1ccc(Cl)cc1)S(=O)(=O)c1cccs1 | -39 |
| CSc1ccc(Cl)c(C(=O)OCC(=O)N2CC(C)OC(C)C2)c1 (centres unmarked) | 3.41 |
| COc1ccc(OC)c(Nc2ccc(Nc3cc(OC)ccc3OC)nn2)c1 | -2.07 |
| CCOC(=O)C1=C(C)Nc2nc(C)nn2C1c1ccc(C)cc1 (centres unmarked) | 11.8 |
| O=c1cccc2n1CC1CC2CN(S(=O)(=O)c2ccccc2)C1 (centres unmarked) | -3.59 |
| CCOc1cc(/C=C2\CCCC(C(=O)C(F)(F)F)=C2O)ccc1O | -0.748 |
| CCCC(=O)OCC(=O)Nc1ccc2[nH]c(=O)[nH]c2c1 | 20.2 |
| COc1ccc(C2=NN(C(C)=O)CC2c2cccc([N+](=O)[O-])c2)cc1 (centres unmarked) | -44.3 |
| Cc1ccc(C(C)C)c(OCCOCCN2CCNCC2)c1.O=C(O)C(=O)O | -3.95 |
